The values below come from patent US20030017550A1 (priority 2001, published 2003).

Read-outs that look alike come from different tables or passages of the source. Where no end group is shown, it is not given here.

This assay concerns human peripheral blood lymphocytes. The source says:
The E-rosette bioassay performed in this invention is based on the observations that the addition of optimally active thymosin preparation can increase in patients with thymus hypoplasia the percent and absolute number of peripheral blood T cells forming rosette with sheep red blood cells (Wara et al., N. Engl. J Med. 292:70, 1975), and that thymic extracts can restore the erythrocyte rosette-forming capacity of alpha-amanitin-treated lymphocytes (Sattar et al., Immunol. Lett. 27:221, 1991). In fact, the percentage of E-rosette forming cells in peripheral human blood can be a measure of the content of fully mature T-cells. In a healthy adult the normal level of E-rosettes is about 56%. For the performance of the E-rosette assay, a RNA polymerase inhibitor, alpha-amanitin, was used. […] A rosette was defined as a lymphocyte that bound three or more sheep erythrocytes. Rosettes enumerated under a microscope by counting 200 lymphocytes. The results were expressed as percent lymphocytes forming rosettes. The value of the normal level of E-rosette in the healthy adult is taken as 100% in a relative numerical scale, and after the alpha-amanitin blockage it is taken as 0%. Each data point was done in duplicate.

With “thymosin alpha 1 (SDAAVDTSSEITTKDLKEKKEVVEEAEN; ends and bridges not checked; UniProt P06454 2-29, looked up) [Synthetic TM-alpha1, 28 amino acid acidic thymic peptide; synthetic form used as comparator in the E-rosette assay]”, the “E-rosette number (%)” value (0.19 µg/0.5 ml culture, relative scale) is listed as 34%; the “E-rosette number (%)” value (0.38 µg/0.5 ml culture, relative scale) amounted to 57%; the “E-rosette number (%)” value (0.75 µg/0.5 ml culture, relative scale) turned out to be 100%; the “E-rosette number (%)” value (1.5 µg/0.5 ml culture, relative scale) came to 62%; the “E-rosette number (%)” value (3.0 µg/0.5 ml culture, relative scale) stood at 52%; the “E-rosette number (%)” value (6.0 µg/0.5 ml culture, healthy adult level = 100%, after alpha-amanitin blockage = 0%) turned out to be 30%.

B1: IFN-beta/TM-alpha1: fusion protein: human IFN-beta (amino acids 1-166) linked to human TM-alpha1 (172-199) via a linker (167-171), SEQ ID NO:11, expressed in E. coli (protein)
chain: MSYNLLGFLQRSSNFQCQKLLWQLNGRLEYCLKDRMNFDIPEEIKQLQQFQKEDAALTIYEMLQNIFAIFRQDSSSTGWNETIVENLLANVYHQINHLKTVLEEKLEKEDFTRGKLMSSLHLKRYYGRILHYLKAKEYSHCAWTIVRVEILRNFYFINRLTGYLRNSGGGGSDAAVDTSSEITTKDLKEKKEVVEEAEN
modifications: Human
On to B1, for which the “E-rosette number (%)” value runs as follows: (0.156 µg/0.5 ml culture, relative scale) 21%; (0.31 µg/0.5 ml culture, relative scale) 51%; (0.63 µg/0.5 ml culture, relative scale) 91%; (1.25 µg/0.5 ml culture, relative scale) 57%; (2.5 µg/0.5 ml culture, relative scale) 43%; (5.0 µg/0.5 ml culture, relative scale) 19%.
